# Data as given in PubChem BioAssay (NCATS).
# Inconclusive means that the source gave no clear call. Such entries were picked first, then a sample of the others. For some assays here: Potencies of inconclusive entries are left out as doubtful fits. Calls of active or inactive are those of the source. Calls come from the whole dose curve; as a rule, active = well fitted curve in the direction sought with a large enough effect; inconclusive = small, poorly fitted or top-dose-only effect, or another doubt; inactive = no such curve, though single readings can be large; an effect the other way counts as inactive or inconclusive.
# Key:
# [1] = qHTS of pediatric cancer cell lines to identify multiple opportunities for drug repurposing: Primary screen for SK-N-MC cells (AID 1347093); conditions: SK-N-MC viability, CellTiter-Glo luminescence, 48 h; activity change, negative = cytotoxic: at 46 µM (top of the series);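 note: plate controls were DMSO neutral control for no effect and bortezomib for full effect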
# How it was run: (§1)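 Metabolically active cells were quantified by ATP-dependent luminescence (CellTiter-Glo, 15 min at room temperature) following 48 h treatment. Cells had been plated at 500-1,000 per well and settled for 5 h beforehand.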
# [2] = qHTS of pediatric cancer cell lines to identify multiple opportunities for drug repurposing: Primary screen for BT-37 cells (AID 1347094);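 note: plate controls were DMSO for no effect and bortezomib for full effect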
# How it was run: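 Plated cells (500-1,000 per well, growth media) were allowed to settle for 5 hours, treated with compound dilutions for 48 hours, then lysed with CellTiter-Glo for 15 min at room temperature before luminescence reading.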
# [3] = qHTS of pediatric cancer cell lines to identify multiple opportunities for drug repurposing: Primary screen for Rh30 cells (AID 1347107); note: % is set by controls: 0 for no effect and ±100 for the full control effect; nearly all actives have a fitted effect of over 75% in size
# How it was run: (§2)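 Cells (500-1,000/well) in growth media were settled 5 h at 37 degrees C, then given compounds for 48 h. Viability was read as CellTiter-Glo luminescence. Primary runs used MIPE at 11 points (0.78 nM-46 µM) and NPC at 8 points (0.59 nM-46 µM); follow-ups used 11 points.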
# [4] = qHTS of pediatric cancer cell lines to identify multiple opportunities for drug repurposing: Confirmatory screen for NB1643 cells (AID 1347109);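 note: plate controls were DMSO for no effect and bortezomib for full effect; nearly all actives have a fitted effect of over 45% in size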
# How it was run: as §2
# [5] = qHTS of pediatric cancer cell lines to identify multiple opportunities for drug repurposing: Confirmatory screen for A673 cells (AID 1347110);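 note: cells exposed to compound for 48 h before the viability read; plate controls were DMSO neutral control for no effect and bortezomib positive control for full effect; nearly all actives have a fitted effect of over 65% in size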
# How it was run: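 Concentration-response curves came straight from titrations: 11 points (0.78 nM to 46 µM) for MIPE and several concentrations (0.59 nM to 46 µM) for NPC in primary, 11 points in follow-up. Readout: ATP luminescence at 48 h.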
# [6] = qHTS of pediatric cancer cell lines to identify multiple opportunities for drug repurposing: Confirmatory screen for SK-N-MC cells (AID 1347111);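 note: potency is the fitted concentration of half-maximal effect; cells exposed to compound for 48 h before the readout; nearly all actives have a fitted effect of over 70% in size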
# How it was run: as §1
# [7] = qHTS of pediatric cancer cell lines to identify multiple opportunities for drug repurposing: Confirmatory screen for BT-12 cells (AID 1347112); note: % is set by controls: 0 for no effect and ±100 for the full control effect; nearly all actives have a fitted effect of over 55% in size
# How it was run: as §2
# [8] = qHTS of pediatric cancer cell lines to identify multiple opportunities for drug repurposing: Confirmatory screen for LAN-5 cells (AID 1347113); note: potency is the fitted concentration of half-maximal effect; nearly all actives have a fitted effect of over 65% in size
# How it was run: as §2
# [9] = qHTS of pediatric cancer cell lines to identify multiple opportunities for drug repurposing: Confirmatory screen for DAOY cells (AID 1347114); note: % is set by controls: 0 for no effect and ±100 for the full control effect; nearly all actives have a fitted effect of over 65% in size
# How it was run: (§3)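 Viability measured as metabolically active cells via CellTiter-Glo luminescence following 48 hours of compound exposure, 11-point dilutions in confirmatory testing. 500-1,000 cells/well plated 5 hours before dosing; controls were DMSO and 2.3 µM bortezomib.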
# [10] = qHTS of pediatric cancer cell lines to identify multiple opportunities for drug repurposing: Confirmatory screen for NB-EBc1 cells (AID 1347115); conditions: NB-EBc1 neuroblastoma cells, viability (cytotoxicity); activity change, negative = cytotoxic: at 45.9 µM (top of the series);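 note: cells exposed to compound for 48 h before the viability read; % is set by controls: 0 for no effect and ±100 for the full control effect; nearly all actives have a fitted effect of over 45% in size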
# How it was run: as §2
# [11] = qHTS of pediatric cancer cell lines to identify multiple opportunities for drug repurposing: Confirmatory screen for SJ-GBM2 cells (AID 1347116); note: potency is the fitted concentration of half-maximal effect; nearly all actives have a fitted effect of over 60% in size
# How it was run: as §3
# [12] = qHTS of pediatric cancer cell lines to identify multiple opportunities for drug repurposing: Confirmatory screen for BT-37 cells (AID 1347117);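 note: plate controls were DMSO for no effect and bortezomib for full effect; nearly all actives have a fitted effect of over 55% in size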
# How it was run: as §2
# [13] = qHTS of pediatric cancer cell lines to identify multiple opportunities for drug repurposing: Confirmatory screen for TC32 cells (AID 1347118);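 note: potency is the fitted concentration of half-maximal effect; cells exposed to compound for 48 h before the read; nearly all actives have a fitted effect of over 65% in size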
# How it was run: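 Measured quantity: luminescence from CellTiter-Glo, reflecting metabolically active TC32 cells following 48 h of compound. Curves came straight from multi-point titrations, with 8 or 11 points in primary and 11 in confirmatory screening.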
# [14] = qHTS of pediatric cancer cell lines to identify multiple opportunities for drug repurposing: Confirmatory screen for MG 63 (6-TG R) cells (AID 1347119);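 note: plate controls were DMSO neutral control for no effect and bortezomib for full effect; nearly all actives have a fitted effect of over 55% in size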
# How it was run: as §2
# [15] = qHTS of pediatric cancer cell lines to identify multiple opportunities for drug repurposing: Confirmatory screen for RD cells (AID 1347124); conditions: RD rhabdomyosarcoma cell viability; activity change, negative = cytotoxic: at 45.9 µM (top of the series)
# How it was run: as §2
# [16] = qHTS of pediatric cancer cell lines to identify multiple opportunities for drug repurposing: Confirmatory screen for Saos-2 cells (AID 1347127); note: potency is the fitted concentration of half-maximal effect; nearly all actives have a fitted effect of over 60% in size
# How it was run: as §2
# [17] = qHTS of pediatric cancer cell lines to identify multiple opportunities for drug repurposing: Confirmatory screen for SK-N-SH cells (AID 1347129);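 note: cells exposed to compound for 48 h before viability read; plate controls were DMSO for no effect and bortezomib control for full effect; nearly all actives have a fitted effect of over 60% in size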
# How it was run: as §2
# [18] = Primary qHTS for small molecule stabilizers of the endoplasmic reticulum resident proteome: Secreted ER Calcium Modulated Protein (SERCaMP) assay (AID 1508630); conditions: SH-SY5Y GLuc-SERCaMP (Gaussia luciferase released on ER calcium loss) secretion, thapsigargin, luminescence; activity change, negative = inhibition: at 38.4 µM (top of the series) unless noted; note: potency is the fitted concentration of half-maximal effect
# How it was run: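 The SH-SY5Y reporter protocol was run at 3 concentrations up to 38.3 uM (primary) or 11 concentrations (follow-up): 16 h compound, 100 nM thapsigargin for 4 h, then extracellular luciferase luminescence.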
# AA1029 = test: qHTS profiling for inhibitors of Plasmodium falciparum proliferation (AID 504749); note: nearly all actives have a fitted effect of over 60% in size; note: potency is the fitted concentration of half-maximal effect; conditions: P. falciparum in erythrocytes, SYBR Green DNA, 72 h; series mostly up to 28.7 µM
# How it was run: (§4)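 Quantitative HTS: compounds pinned into medium, infected erythrocytes added (0.3% parasitemia, 2.5% hematocrit), 72 h culture at 37 C under 5% CO2. Saponin/Triton lysis with SYBR Green I, overnight RT, then fluorescence read.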
# ATS189 = test: as above; conditions: P. falciparum in erythrocytes, SYBR Green DNA, 72 h; series mostly up to 28.7 µM
# How it was run: as §4
# CP191 = test: as above; conditions: P. falciparum in erythrocytes, SYBR Green DNA, 72 h; series mostly up to 28.7 µM
# How it was run: as §4
# CP238 = test: as above; conditions: P. falciparum in erythrocytes, SYBR Green DNA, 72 h; series mostly up to 28.7 µM
# How it was run: as §4
# CP260 = test: as above; conditions: P. falciparum in erythrocytes, SYBR Green DNA, 72 h; series mostly up to 28.7 µM
# How it was run: as §4
# DIV30 = test: as above; conditions: P. falciparum in erythrocytes, SYBR Green DNA, 72 h; series mostly up to 28.7 µM
# How it was run: as §4
# FAB9 = test: as above; conditions: P. falciparum in erythrocytes, SYBR Green DNA, 72 h; series mostly up to 28.7 µM
# How it was run: as §4
# JCK = test: as above; conditions: P. falciparum in erythrocytes, SYBR Green DNA, 72 h; series mostly up to 28.7 µM
# How it was run: as §4
# PC15 = test: as above; conditions: P. falciparum in erythrocytes, SYBR Green DNA, 72 h; series mostly up to 28.7 µM
# How it was run: as §4
# CRL-7250 = normal cell line; test: Cytotoxic Profiling of Annotated Libraries Using Quantitative High-Throughput Screening (AID 1296008); conditions: Five cell lines viability, CellTiter-Glo ATP luminescence, 48-72 h; max response: stronger effect = lower value
# How it was run: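 Compounds were pin-transferred onto cells and incubated 48 or 72 hr at 37 degree Celsius, 95% humidity. CellTiter-Glo was added, plates sat 10 min at room temperature, then ATP-coupled luminescence was imaged as the viability read-out.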
# CAOV3 = test: Primary qHTS to identify gynecologic anti-cancer compounds using libraries of approved drugs and bioactive compounds (AID 1345084); conditions: Gynecologic cancer cell panel viability, ATPlite luminescence, 48 h; activity change, negative = cytotoxicity: at 57.5 µM (top of the series); note: nearly all actives have a fitted effect of over 55% in size; note: potency is the fitted concentration of half-maximal effect; for activity change, negative = cytotoxicity: % is set by controls: 0 for no effect and ±100 for the full control effect
# How it was run: (§5)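 Five-point cytotoxicity, 48 h drug exposure at 37 C, 5% CO2, on cells seeded 16 h beforehand. ATP content read by ATPlite luminescence.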
# PA-1 = test: as above; conditions: Gynecologic cancer cell panel viability, ATPlite luminescence, 48 h; series mostly up to 57.5 µM
# How it was run: as §5
# SKOV3 = test: as above; conditions: Gynecologic cancer cell panel viability, ATPlite luminescence, 48 h; series mostly up to 57.5 µM
# How it was run: as §5
# [19] = Drug repurposing screens with cells derived from glioblastoma tumor samples (AID 1345199); conditions: GBM patient neurospheres viability, ATP luminescence, 48 h; Potency: tumour line A unless noted; activity, negative = cell killing: at 46 µM (top of the series), tumour line A unless noted; note: % is set by controls: 0 for no effect and ±100 for the full control effect; nearly all actives have a fitted effect of over 40% in size
# How it was run: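 Primary testing used CD133+ neurospheres from four GBM patients, seven concentrations, 48 h exposure and ATP-based viability; confirmation added three slower-growing patient lines.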
# Tags give direction and shape of the fitted curve.
structure (smiles),measurement,setting,value
COc1cc(C(=O)NCCCCCC(=O)O)cc(OC)c1OC,Potency,[1],inactive
same,Potency,[2],inactive
same,Potency,[3],inactive
same,Potency,[4],inactive
same,Potency,[5],inactive
same,Potency,[6],"inconclusive [cytotoxic, full curve]"
same,Potency,[7],inactive
same,Potency,[8],"inconclusive [rising, partial curve]"
same,Potency,[9],inactive
same,Potency,[10],inactive
same,Potency,[11],"inconclusive [rising, single point]"
same,Potency,[12],inactive
same,Potency,[13],"inconclusive [cytotoxic, partial curve, poor fit]"
same,Potency,[14],inactive
same,Potency,[15],inactive
same,Potency,[16],"inconclusive [rising, partial curve]"
same,Potency,[17],inactive
same,Potency,[18],"inconclusive [inhibitor, single point]"
same,Potency,AA1029,inactive
same,Potency,ATS189,inactive
same,Potency,CP191,inactive
same,Potency,CP238,inactive
same,Potency,CP260,"inconclusive [inhibitor, single point]"
same,Potency,DIV30,inactive
same,Potency,FAB9,inactive
same,Potency,JCK,"inconclusive [inhibitor, full curve, poor fit]"
same,Potency,PC15,inactive
same,max response,CRL-7250,inactive: -1.11%
same,Potency,CAOV3,inactive
same,Potency,PA-1,"inconclusive [rising, partial curve, poor fit]"
same,Potency,SKOV3,"inconclusive [rising, single point]"
same,Potency,[19],inactive
